{"source": "PubChem BioAssay AID1745845", "about": "(National Center for Advancing Translational Sciences (NCATS), 2022)", "note": "Where “and” joins values, the source holds several entries; their conditions need not be identical. Equal entries are not always repeated. Screen size: about 360,000 compounds; about 2,600 (0.72%) were called active. This list was built around the results that the source calls inconclusive (neither active nor inactive); the mix of calls is not that of the screen. Calls come from the whole dose curve; as a rule, active = well fitted inhibition curve with a large enough effect; inconclusive = small, poorly fitted or top-dose-only effect; inactive = no such curve, though single readings can be large or run the other way. Where the call is inconclusive, the potency comes from a doubtful curve fit. Some structures have more than one record in an assay (separate samples or runs), and their calls can disagree. % is set by controls: 0 for no effect and ±100 for the full control effect; potency is the fitted concentration of half-maximal effect; tags give direction and shape of the fitted curve.", "data": [{"assay": "Primary qHTS for Inhibitors of ATXN expression; note: nearly all actives have a fitted effect of over 55% in size", "conditions": "HEK-293 ATXN2-luciferase reporter, luminescence, 24 h; activity change, negative = inhibition: at 57 µM (top of the series)", "method_in_brief": "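qHTS (up to 57 uM final) was run with 24 h compound exposure of reporter cells at 37 °C. Each well was multiplexed: SteadyGlo luminescence measured ATXN2-luciferase expression after a fluorogenic Gly-Phe-AFC viability readout (25 uM final).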", "values": [{"smiles": "CCCCOCCCNC(=O)C[C@@H]1C[C@@]2(C(=O)OCC)CCCC=C2N(Cc2ccc3c(c2)OCO3)C1=O", "activity change, negative = inhibition": "inactive: -13.8%"}, {"smiles": "O=Cc1cn(CC(=O)N2CCCc3ccccc32)c2ccccc12", "Potency": "inconclusive: 39.8 µM [inhibitor, partial curve, poor fit]"}, {"smiles": "CCOCCCNC(=O)c1cc(-c2ccc(Br)s2)nc2ccccc12", "activity change, negative = inhibition": "inactive: -19.8%"}, {"smiles": "CC(C)=CCc1ccc(O)c(=O)cc1C(C)C", "Potency": "inconclusive: 7.08 µM [inhibitor, full curve]"}, {"smiles": "COc1ccc(C(=O)N=c2nc3ccccn3s2)cc1", "Potency": "inconclusive: 17.8 µM [inhibitor, single point]"}, {"smiles": "COc1cc2nc(/C=C/c3cc(OC)c(OC)c(OC)c3)sc2cc1SC", "Potency": "inconclusive: 10 µM [inhibitor, partial curve]"}, {"smiles": "C=CCN1C(=O)C(Cc2ccc(C)cc2)S/C1=N/N=C/c1ccco1", "note": "(stereo not given)", "activity change, negative = inhibition": "inactive: -3.12%"}, {"smiles": "COc1ccc(/C=C/C(=O)OCC(=O)c2ccccc2F)cc1", "activity change, negative = inhibition": "inactive: 25.1%"}, {"smiles": "O=C(Nc1cccc(Cl)c1)c1ccc(S(=O)(=O)NCC2CCCO2)cc1", "note": "(stereo not given)", "Potency": "inconclusive: 39.8 µM [inhibitor, single point]"}, {"smiles": "CC(Sc1ccc(S(=O)(=O)N2CCOCC2)cn1)c1ccccc1Cl", "note": "(stereo not given)", "activity change, negative = inhibition": "inactive: -29.1%"}, {"smiles": "CCN(CC)CCCNC(=O)CSc1c2c(nc3cc(Cl)ccc13)CCCC2", "Potency": "inconclusive: 22.4 µM [inhibitor, partial curve, poor fit] and inconclusive: 16.8 µM [inhibitor, partial curve, poor fit]"}, {"smiles": "CC1=C(C(=O)Nc2ccc(C)cc2C)C(C(C)C)n2nc(SCc3ccccc3Cl)nc2N1", "note": "(stereo not given)", "activity change, negative = inhibition": "inactive: -6.04%"}, {"smiles": "Cn1ccc2c(/C=C/c3ccc(F)cc3)cc3c(c21)C1CCC3O1", "note": "(stereo not given)", "activity change, negative = inhibition": "inactive: -28.2%"}, {"smiles": "O=C(Nc1cccc(Br)c1)c1cc(S(=O)(=O)N2CCOCC2)cs1", "activity change, negative = inhibition": "inactive: -13.7%"}, {"smiles": "c1ccc(C[C@H]2CNCCN2CCc2cccc3ccccc23)cc1", "Potency": "inconclusive: 35.5 µM [inhibitor, single point]"}, {"smiles": "O=C(CSc1nnc(SCc2ccc(Cl)cc2)s1)N/N=C/c1c(Cl)cccc1Cl", "activity change, negative = inhibition": "inactive: -6.36%"}, {"smiles": "O=C(O)c1sccc1Oc1ccc(F)cc1[N+](=O)[O-]", "activity change, negative = inhibition": "inactive: -0.81%"}, {"smiles": "Cc1cccc2sc(N(CCCN(C)C)C(=O)c3ccc(Cl)s3)nc12", "Potency": "active: 22.4 µM and inconclusive: 15.8 µM [inhibitor, single point]"}, {"smiles": "NC(=O)/C(N=Nc1ccccc1)=N/Nc1ccccc1", "activity change, negative = inhibition": "inactive: 14.3%"}, {"smiles": "C=C1CC2(OC1=O)c1ccccc1CCc1ccccc12", "Potency": "active: 5.97 µM"}, {"smiles": "CCOc1cc(CNCc2ccccn2)cc(Cl)c1OCC", "activity change, negative = inhibition": "inactive: -9.36%"}, {"smiles": "O=[N+]([O-])c1c(Nc2cccc(O)c2)cc(Cl)c2nonc12", "Potency": "inconclusive: 28.2 µM [inhibitor, single point]"}, {"smiles": "O=C(NC1C=CS(=O)(=O)C1)c1sc2ccccc2c1Cl", "note": "(stereo not given)", "Potency": "inconclusive: 25.1 µM [inhibitor, partial curve, poor fit]"}, {"smiles": "COC(=O)CCCC(=O)N1CCCC(N(C)CCc2ccccc2)C1", "note": "(stereo not given)", "activity change, negative = inhibition": "inconclusive: -46.3% [inhibitor]"}, {"smiles": "CCOc1ccc(CN2CCC(C(=O)Nc3cccc(-c4ccn[nH]4)c3)CC2)cc1Cl", "Potency": "inconclusive: 35.5 µM [inhibitor, single point]"}, {"smiles": "Cc1noc(C)c1CSc1nnc(-c2cc(Cl)ccc2Cl)n1N", "Potency": "inconclusive: 28.2 µM [inhibitor, single point]"}, {"smiles": "OCC1OC(n2cnc3c(NCc4ccco4)ncnc32)C(O)C1O", "note": "(stereo not given)", "Potency": "inconclusive: 8.44 µM [inhibitor, single point]"}, {"smiles": "CC(C)(C)c1ccc(C(=O)Nc2ccc(NC(=O)c3ccco3)cc2)cc1", "Potency": "inconclusive: 15.8 µM [inhibitor, partial curve]"}, {"smiles": "CCc1c(C2(O)CCCCC2)[nH]c2cc(C(F)(F)F)ccc12", "Potency": "inconclusive: 39.8 µM [inhibitor, single point]"}, {"smiles": "CC(=O)N(c1ccc2oc(=O)sc2c1)S(=O)(=O)c1cccs1", "activity change, negative = inhibition": "inactive: 1.58%"}, {"smiles": "COc1cc(-c2nc(-c3ccccc3)c(-c3ccc(Br)cc3)[nH]2)cc(OC)c1O", "Potency": "inconclusive: 39.8 µM [inhibitor, single point]"}, {"smiles": "CC(NC(=O)Nc1nnc(C(F)(F)F)s1)(C(F)(F)F)C(F)(F)F", "Potency": "inconclusive: 25.1 µM [inhibitor, partial curve, poor fit]"}, {"smiles": "Cc1ccc(NC(=S)NC(=O)c2ccc(F)cc2)cc1S(=O)(=O)Nc1cccc(Cl)c1", "Potency": "inconclusive: 18.9 µM [inhibitor, partial curve, poor fit]"}, {"smiles": "O=C(NOCC(O)CO)c1cc(Br)c(F)c(F)c1Nc1ccc(I)cc1F", "note": "(stereo not given)", "activity change, negative = inhibition": "inactive: -6.82%"}, {"smiles": "CC1C(=O)CC(c2ccccc2)N(C)C1c1ccccc1", "note": "(stereo not given)", "activity change, negative = inhibition": "inactive: -20.8%"}, {"smiles": "NNC(=O)c1cccc(COc2ccccc2Br)c1", "Potency": "inconclusive: 39.8 µM [inhibitor, single point]"}, {"smiles": "Fc1cccc(F)c1/C=C/c1ccc2ccccc2n1", "activity change, negative = inhibition": "inactive: 52.6%"}, {"smiles": "COc1oc(C(=O)NC2CCCCC2)c(-c2ccc(Cl)cc2)c1S(=O)(=O)c1ccccc1", "Potency": "inconclusive: 37.7 µM [inhibitor, single point]"}, {"smiles": "Cc1ccc(-c2nnc(Nc3ccc(O)cc3)c3ccccc23)cc1S(=O)(=O)NC(C)(C)CO", "Potency": "inconclusive: 39.8 µM [inhibitor, single point]"}, {"smiles": "CC(C)(C)n1nnnc1C(c1cccs1)N(Cc1ccc(Cl)cc1)CC1CCCO1", "note": "(stereo not given)", "Potency": "inconclusive: 22.4 µM [inhibitor, single point]"}, {"smiles": "CC1CN(C(=O)COC(=O)c2ccc(Cl)c(S(=O)(=O)N3CCCCC3)c2)CC(C)O1", "note": "(stereo not given)", "activity change, negative = inhibition": "inactive: -2.06%"}, {"smiles": "O=C(O)c1ccc(N/N=C/c2ccc(C(F)(F)F)cc2)cc1", "Potency": "inconclusive: 6.7 µM [inhibitor, partial curve, poor fit]"}, {"smiles": "CCN(CC)CCOc1ccc(/C(=C(/Cl)c2ccccc2)c2ccccc2)cc1", "Potency": "active: 25.1 µM"}, {"smiles": "Cc1cccc(N2CCN(C(=O)CCNS(=O)(=O)c3ccc4c(c3)CCN4C(=O)C3CC3)CC2)c1C", "Potency": "inconclusive: 14.1 µM [inhibitor, partial curve]"}, {"smiles": "COc1ccc(Nc2cc(C)c3cc(NC(=O)COc4cccc(C)c4)ccc3n2)cc1", "Potency": "inconclusive: 39.8 µM [inhibitor, single point]"}, {"smiles": "COc1ccc(S(=O)(=O)N2CCCC2CNC(=O)C(=O)Nc2ccc(F)cc2)cc1", "note": "(stereo not given)", "activity change, negative = inhibition": "inactive: 36.6%"}, {"smiles": "Oc1ccc(C[C@H]2CN([C@@H](Cc3ccc(O)cc3)CN3CCC[C@@H]3CN3C(=S)NC[C@@H]3Cc3ccccc3)C(=S)N2CC2CCCCCC2)cc1", "Potency": "active: 10 µM"}, {"smiles": "CCOc1cc(C(=O)Nc2ccc3nc(N4CCN(C)CC4)cc(C)c3c2)cc(OCC)c1OCC", "Potency": "inconclusive: 28.2 µM [inhibitor, single point]"}, {"smiles": "Cc1ccc(CN2C(=O)CSC2c2ccccc2F)cc1", "note": "(stereo not given)", "activity change, negative = inhibition": "inactive: -7.34%"}, {"smiles": "Cc1cc(C)n2c(NC3CCCCC3)c(CC(C)C)nc2n1", "Potency": "inconclusive: 28.2 µM [inhibitor, partial curve, poor fit]"}, {"smiles": "CCOc1ccccc1NC(=O)c1ccccc1-c1nc(-c2ccccc2OC)no1", "Potency": "inconclusive: 39.8 µM [inhibitor, single point]"}, {"smiles": "O=C(Nc1cccc(-c2cccc(F)c2)c1)C1CCN(Cc2ccc(CO)o2)CC1", "activity change, negative = inhibition": "inactive: -17.6%"}, {"smiles": "COc1cccc(/C=N/NC(=O)c2ccc([N+](=O)[O-])cc2Cl)c1O", "Potency": "inconclusive: 22.4 µM [inhibitor, partial curve, poor fit]"}, {"smiles": "Cc1cnc(NC(=O)c2ccc(OCC3CCCO3)cc2)s1", "note": "(stereo not given)", "Potency": "inconclusive: 11.9 µM [inhibitor, partial curve, poor fit]"}, {"smiles": "NC(=Nc1ccc(N)cc1)C(N)=Nc1ccc(N)cc1", "activity change, negative = inhibition": "inactive: -5.08%"}, {"smiles": "Cc1ccc2nc(N)[nH]c(=O)c2c1Sc1ccncc1", "Potency": "active: 12.6 µM"}, {"smiles": "Cc1ccc(Cn2c(=O)c3ccccc3n3c(CCC(=O)O)nnc23)cc1", "activity change, negative = inhibition": "inactive: 3.58%"}, {"smiles": "FC(F)Sc1ccc(NC(=S)NC2CCCCC2)cc1", "Potency": "inconclusive: 39.8 µM [inhibitor, single point]"}, {"smiles": "COc1ccccc1OCC(=O)N/N=C/C=C/c1ccc([N+](=O)[O-])o1", "Potency": "inconclusive: 31.6 µM [inhibitor, single point]"}, {"smiles": "Cc1cccc(C=NNc2cc(N3CCOCC3)nc(OCCc3ccccn3)n2)c1", "Potency": "active: 0.968 µM"}, {"smiles": "CCCCN(C(=O)CCn1c(=O)oc2ccccc21)c1ccccc1", "activity change, negative = inhibition": "inactive: -22.5%"}, {"smiles": "CCOc1ccc(-c2cc(CCCC(=O)NCCc3ccc(SC)cc3)no2)cc1", "Potency": "inconclusive: 8.91 µM [inhibitor, partial curve, poor fit]"}, {"smiles": "COc1ccc(-n2cc(CNCCCN3CCCC3=O)c(-c3ccccc3Cl)n2)cc1", "activity change, negative = inhibition": "inactive: -20.8%"}, {"smiles": "CCCCCN=C(N)N/N=C/c1c[nH]c2ccc(OC)cc12", "Potency": "active: 5.62 µM and inconclusive: 7.08 µM [inhibitor, single point]"}, {"smiles": "COc1ccc(NCc2nnc(SCc3ccc(Cl)cc3)n2-c2ccccc2)cc1", "Potency": "inconclusive: 39.8 µM [inhibitor, single point]"}, {"smiles": "O=C(Nc1ccccc1Br)N[C@@H]1CCN(c2ccc(C(F)(F)F)cn2)C1", "Potency": "inconclusive: 30.6 µM [inhibitor, single point]"}, {"smiles": "Cc1cccc(NC(=O)CSc2nc3ccccc3c(=O)n2C)c1", "activity change, negative = inhibition": "inactive: -22.1%"}, {"smiles": "CCOc1ccc(-n2c(=O)c3c(C)c(C)sc3n(Cc3ccc(C(C)(C)C)cc3)c2=O)cc1", "Potency": "inconclusive: 3.16 µM [inhibitor, single point]"}, {"smiles": "O=C(C1=C[C@H](C2CCCCC2)C[C@H](OCc2ccc(CO)cc2)O1)N1CCN(Cc2ccc3c(c2)OCO3)CC1", "Potency": "inconclusive: 39.8 µM [inhibitor, single point]"}, {"smiles": "O=C(COC(=O)C1CC2C=CC1C2)Nc1ccccc1[N+](=O)[O-]", "note": "(stereo not given)", "activity change, negative = inhibition": "inactive: 16.9%"}]}]}
